According to the supplement of paper PMC10600219:
Where a name gives a salt, the structure may show the parent alone. Over roughly 2,800 compounds, “cell viability relative to vehicle” has its median near 1.1; the lowest 2% begin near 0.19. The list shows a part of the results.

System: NCI-H2228 parental
Assay: cell viability relative to vehicle (fraction of vehicle); NCI-H2228 is an ALK-positive lung cancer line and DTP means drug-tolerant persister; higher = less growth inhibition
Conditions: 100 nM; treatment time 6 days
How it was run: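 Each value is viability relative to vehicle-treated cells, measured as ATP with the CellTiter-Glo 3D Cell Viability Assay. Parental NCI-H2228 cells and drug-tolerant persisters (1000 nM targeted drug, 13 days) in 384-well plates received the 3114-agent TargetMol anti-cancer compound library at 100 nM, or DMSO, and were read 6 days later.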

For Cc1ccc(Nc2nnc(Cc3ccncc3)c3ccccc23)cc1Br, which cell viability is on record?
Its cell viability is 0.942.

Which cell viability does the source give for CCCCCCCCCCCCCCOc1ccc(C(=O)O)o1 here?
Its cell viability is 1.05.

With C[C@@H](N)[C@H]1CC[C@H](C(=O)Nc2ccncc2)CC1 as the compound, how does the cell viability read?
The cell viability was 1.3.

Which cell viability does the source give for c1cnc2cc3c(cc2n1)[C@@H]1CNC[C@H]3C1 [Varenicline Tartrate] here?
The cell viability was 1.19.

NNC(=O)c1ccccn1 [2-Picolinyl hydrazide] was tested. Which cell viability did it give?
The cell viability was 0.879.

CCCCCN(CCCOC)C(=O)C(CCC(=O)O)NC(=O)c1ccc(Cl)c(Cl)c1 (centres undefined) [Loxiglumide] was tested. Which cell viability did it give?
Its cell viability is 0.97.

Which cell viability does the source give for O=c1cc(-c2ccc(O)cc2)oc2cc(O)cc(O)c12 [Apigenin] here?
Its cell viability is 1.22.

CO[C@H]1/C=C/O[C@@]2(C)Oc3c(C)c(O)c4c(c3C2=O)C2=NC3(CCN(CC(C)C)CC3)NC2=C(NC(=O)/C(C)=C\C=C\[C@H](C)[C@H](O)[C@@H](C)[C@@H](O)[C@@H](C)[C@H](OC(C)=O)[C@@H]1C)C4=O [Rifabutin] was tested. Which cell viability did it give?
The cell viability was 0.96.

Which cell viability does the source give for CNc1nc(Nc2cnn([C@H]3CCN(C4COC4)C[C@@H]3F)c2Cl)ncc1C(F)(F)F here?
The cell viability was 1.06.

For NCCC[C@H](N)C(=O)O [L-Ornithine], which cell viability is on record?
Its cell viability is 1.12.

How did the cell viability turn out when COc1cc(C(N)=O)ccc1NC(=O)[C@@H]1N[C@@H](CC(C)(C)C)[C@@]2(C(=O)Nc3cc(Cl)ccc32)[C@H]1c1cccc(Cl)c1F was run?
The cell viability was 1.2.

How did the cell viability turn out when CC(C)n1nc(-c2cc3cc(O)ccc3[nH]2)c2c(N)ncnc21 [Torkinib] was run?
The cell viability was 0.747.

With Cc1ccc(S(=O)(=O)Nc2cc(C(F)(F)F)ccc2C(=O)Nc2nc(-c3ccccc3)cs2)cc1 as the compound, how does the cell viability read?
Its cell viability is 0.899.

How did the cell viability turn out when CCOC(=O)c1cnn(-c2ccccc2)c1NC(=O)c1cc2nc(-c3ccco3)cc(C(F)(F)Cl)n2n1 [Mycro-3] was run?
The cell viability was 1.04.

CC(=O)N[C@H]1CSSC[C@@H](C(N)=O)NC(=O)[C@H](C(C)C)NC(=O)[C@H](C)NC(=O)[C@H](Cc2c[nH]cn2)NC1=O [Exherin trifluoroacetate] was tested. Which cell viability did it give?
The cell viability was 1.15.

O=C(CCCCCCNC(=O)c1cnc(N(c2ccccc2)c2ccccc2)nc1)NO [Rocilinostat] was tested. Which cell viability did it give?
The cell viability was 1.01.

With O=c1ncccn1[C@@H]1O[C@H](CO)[C@@H](O)[C@H]1O [Zebularine] as the compound, how does the cell viability read?
Its cell viability is 1.33.

How did the cell viability turn out when COc1cccc(CNC(=O)Nc2nc(-c3ccncc3)cs2)c1 was run?
The cell viability was 1.04.

Which cell viability does the source give for CCOC(=O)c1ccc(OC(=O)CCCCCNC(=N)N)cc1 [Gabexate mesylate] here?
Its cell viability is 1.15.

O=c1[nH]cnc2c1ncn2[C@H]1C[C@H](O)[C@@H](CO)O1 [2'-Deoxyinosine] was tested. Which cell viability did it give?
Its cell viability is 0.912.

How did the cell viability turn out when Cc1cc(C#N)c(N)s1 [2-Amino-5-methyl-3-thiophenecarbonitrile] was run?
Its cell viability is 0.811.

For C[C@@H]1CN(C(=O)c2ccc(NC(=O)c3cc(O[C@H](C)c4c(Cl)ccc(F)c4Cl)c(N)nn3)cc2)C[C@H](C)N1 [Ensartinib], which cell viability is on record?
Its cell viability is 0.653.

How did the cell viability turn out when COc1ccc(C(=O)CC2(O)C(=O)Nc3c(Cl)ccc(Cl)c32)cc1 (centres undefined) was run?
Its cell viability is 1.12.

For CC(C)(C)Cn1c(N)nc2ccc(-c3[nH]c(C(C)(C)C)nc3-c3ccc(F)cc3)nc21 [Ralimetinib Mesylate], which cell viability is on record?
The cell viability was 1.07.

For C/C=C1/[C@H](O[C@@H]2O[C@H](CO)[C@@H](O)[C@H](O)[C@H]2O)OC=C(C(=O)OC)[C@H]1CC(=O)OCCc1ccc(O)c(O)c1 [Oleuropein], which cell viability is on record?
The cell viability was 1.07.

Which cell viability does the source give for Cc1cc(=O)oc2cc(O)ccc12 [4-Methylumbelliferone] here?
The cell viability was 1.31.

With COc1cccc(-c2ccc(NC(=O)C3=C(C(=O)O)CCC3)c(F)c2)c1 [Vidofludimus] as the compound, how does the cell viability read?
The cell viability was 1.04.

CC(C)C[C@H](NC(=O)[C@@H](COC(C)(C)C)NC(=O)[C@H](Cc1ccc(O)cc1)NC(=O)[C@H](CO)NC(=O)[C@H](Cc1c[nH]c2ccccc12)NC(=O)[C@H](Cc1cnc[nH]1)NC(=O)[C@@H]1CCC(=O)N1)C(=O)N[C@@H](CCCNC(=N)N)C(=O)N1CCC[C@H]1C(=O)NNC(N)=O [Goserelin acetate] was tested. Which cell viability did it give?
Its cell viability is 1.07.

How did the cell viability turn out when CC(COc1ccccc1)N(CCCl)Cc1ccccc1 (centres undefined) [Phenoxybenzamine hydrochloride] was run?
Its cell viability is 1.

With Nc1ncn([C@@H]2O[C@H](CO)[C@@H](O)[C@H]2O)c(=O)n1 [5-Azacytidine] as the compound, how does the cell viability read?
Its cell viability is 0.878.

With COc1ccc(CN(CCN(C)C)c2ccccn2)cc1 [Pyrilamine maleate] as the compound, how does the cell viability read?
The cell viability was 1.05.

How did the cell viability turn out when CC(=O)Nc1cccc2c1c(Sc1ccc(Cl)cc1)c(C)n2CC(=O)O was run?
The cell viability was 1.1.

For CCCCCCCCCCCCCCCCCCOP(=O)([O-])OC1CC[N+](C)(C)CC1 [Perifosine], which cell viability is on record?
The cell viability was 1.09.

With O=C(Nc1ccc(OC(F)(F)F)cc1)c1sccc1NCc1ccnc2ccccc12 as the compound, how does the cell viability read?
The cell viability was 1.14.

For Cc1c(-c2ccnn2C)cc(C(=O)NCc2ccc(S(C)(=O)=O)cn2)c(=O)n1-c1cccc(C(F)(F)F)c1 [Alvelestat], which cell viability is on record?
The cell viability was 1.12.

For CC(=O)c1ccc(S(=O)(=O)NC(=O)NC2CCCCC2)cc1 [Acetohexamide], which cell viability is on record?
Its cell viability is 1.05.

How did the cell viability turn out when CCC(N)(C(=O)O)c1ccc(C(=O)O)cc1 (centres undefined) was run?
The cell viability was 0.985.

For COc1cc(CCC(=O)CC(=O)CCc2ccc(O)c(OC)c2)ccc1O [Tetrahydro Curcumin], which cell viability is on record?
Its cell viability is 1.03.

For COc1cc2c(Oc3ccc4[nH]c(C)cc4c3F)ccnc2cc1OCC1(N)CC1 [Anlotinib], which cell viability is on record?
Its cell viability is 1.11.

COc1cc2c(Oc3ccc4[nH]c(C)cc4c3F)ccnc2cc1OCC1(N)CC1 [Anlotinib Dihydrochloride] was tested. Which cell viability did it give?
Its cell viability is 0.907.

CC(C)(C)c1[nH]cnc1/C=c1\[nH]c(=O)/c(=C/c2ccccc2)[nH]c1=O [Plinabulin] was tested. Which cell viability did it give?
Its cell viability is 0.29.

With Cn1c(=O)c2nc[nH]c2n(C)c1=O [Theophylline] as the compound, how does the cell viability read?
The cell viability was 1.

With CC(=O)O[C@H](CC=C(C)C)C1=CC(=O)c2c(O)ccc(O)c2C1=O [Acetyl shikonin] as the compound, how does the cell viability read?
Its cell viability is 1.05.

Which cell viability does the source give for COc1cc2c(cc1OC)[C@@H](Cc1ccc(Oc3cc(C[C@@H]4c5cc(OC)c(OC)cc5CCN4C)ccc3O)cc1)N(C)CC2 [Dauricine] here?
Its cell viability is 1.09.

COC(=O)c1cc(O)c(O)c(O)c1 [Methyl gallate] was tested. Which cell viability did it give?
Its cell viability is 1.18.

c1ccc(C2CN3CCSC3=N2)cc1 (centres undefined) [Tetramisole hydrochloride] was tested. Which cell viability did it give?
The cell viability was 1.2.

How did the cell viability turn out when N#Cc1ccc(-c2c(-c3ncn[nH]3)sc(N3CCOCC3)c2C#N)c(F)c1 was run?
Its cell viability is 0.999.

How did the cell viability turn out when NCCCC[C@H](N[C@@H](CCc1ccccc1)C(=O)O)C(=O)N1CCC[C@H]1C(=O)O [Lisinopril dihydrate] was run?
The cell viability was 1.21.

How did the cell viability turn out when O=C1Nc2ccc(CN3C(=O)CSC3=O)cc2/C1=C/c1cc(CN2CCOCC2)c[nH]1 was run?
Its cell viability is 1.06.

For CC(C)(C)NC[C@H](O)COc1nsnc1N1CCOCC1 [Timolol Maleate], which cell viability is on record?
The cell viability was 1.13.

Cc1ccc(C(=O)Nc2ccc(CN3CCN(C)CC3)c(C(F)(F)F)c2)cc1C#Cc1cnc2cccnn12 [Ponatinib] was tested. Which cell viability did it give?
Its cell viability is 1.19.

CNC(=O)c1ccc(Nc2nc(OC3CCCC3)c3c(-c4ccc5nc(C)oc5c4)c[nH]c3n2)c(OC)c1 was tested. Which cell viability did it give?
Its cell viability is 0.967.

Which cell viability does the source give for O=C(Nc1cccc2c(=O)cc(-c3nnn[nH]3)oc12)c1ccc(OCCCCc2ccccc2)cc1 [Pranlukast] here?
The cell viability was 1.1.

With COc1ccccc1C(=O)Nc1cc2c(cc1N1CCCCC1)n(C)c(=O)n2C as the compound, how does the cell viability read?
Its cell viability is 1.04.

With CO/N=C(\C(=O)N[C@@H]1C(=O)N2C(C(=O)O)=C(CSc3nc(=O)c(O)nn3C)CS[C@H]12)c1csc(N)n1 [Ceftriaxone sodium] as the compound, how does the cell viability read?
The cell viability was 1.02.

How did the cell viability turn out when COc1cccc(NC(=O)/C=C/c2ccc(Cl)cc2)c1 was run?
Its cell viability is 1.12.

With COc1cc(OC)c2c(=O)[nH]c(-c3cc(C)c(OCCO)c(C)c3)nc2c1 [Apabetalone] as the compound, how does the cell viability read?
Its cell viability is 1.09.

For O=C(c1cccc(Cl)c1F)N1CCN(Cc2cccc(Nc3nccs3)n2)CC1, which cell viability is on record?
The cell viability was 0.531.

How did the cell viability turn out when CC(C)[C@H]1C(=O)N[C@@H](CCCNC(=N)N)C(=O)NCC(=O)N[C@@H](CC(=O)O)C(=O)N[C@H](Cc2ccccc2)C(=O)N1C [Cilengitide] was run?
The cell viability was 0.875.

With C[C@@H]1O[C@@H](Oc2c(-c3cc(O)c(O)c(O)c3)oc3cc(O)cc(O)c3c2=O)[C@H](O)[C@H](O)[C@H]1O [Myricetrin] as the compound, how does the cell viability read?
Its cell viability is 1.06.

Which cell viability does the source give for CC1(C)Cc2c(sc(NC(=O)c3ccn[nH]3)c2C(N)=O)C(C)(C)O1 here?
Its cell viability is 1.02.

For O=C(Nc1c[nH]nc1-c1nc2ccc(CN3CCOCC3)cc2[nH]1)NC1CC1, which cell viability is on record?
The cell viability was 0.106.

Which cell viability does the source give for Cn1cc(-c2ccc(F)c(C(F)(F)F)c2)nc1C1CCN(c2ncnc3[nH]ncc23)CC1 here?
The cell viability was 1.04.

CCOC(=O)[C@H](CCc1ccccc1)N[C@H]1CCc2ccccc2N(CC(=O)O)C1=O [Benazepril hydrochloride] was tested. Which cell viability did it give?
Its cell viability is 1.04.

How did the cell viability turn out when CN(Cc1ccccc1)c1ccc2cc(C(=O)O)c(=O)oc2c1 was run?
Its cell viability is 0.827.

CN1CCCC(n2nc(Cc3ccc(Cl)cc3)c3ccccc3c2=O)CC1 (centres undefined) [Azelastine hydrochloride] was tested. Which cell viability did it give?
Its cell viability is 1.05.

Which cell viability does the source give for COc1cc(OC)c(C=C2C(=O)Nc3ccccc32)c(OC)c1 here?
Its cell viability is 0.829.

CC(C)C[C@H](NC(=O)[C@H](CCc1ccccc1)NC(=O)CN1CCOCC1)C(=O)N[C@@H](Cc1ccccc1)C(=O)N[C@@H](CC(C)C)C(=O)[C@@]1(C)CO1 [Carfilzomib] was tested. Which cell viability did it give?
Its cell viability is 0.0349.

How did the cell viability turn out when COc1ccc(C2(CNC(=O)c3ccc(NC(=O)c4ccco4)cc3)CCOCC2)cc1 was run?
Its cell viability is 1.06.

With O=S(=O)(c1ccccc1)c1cnc2c(N3CCNCC3)cccc2c1 as the compound, how does the cell viability read?
The cell viability was 1.09.

For O=C(O[C@H]1CN2CCC1CC2)N1CCc2ccccc2[C@@H]1c1ccccc1 [Solifenacin succinate], which cell viability is on record?
Its cell viability is 1.25.

With NC(=O)N/N=C/c1ccc([N+](=O)[O-])o1 [Furacilin] as the compound, how does the cell viability read?
Its cell viability is 1.05.

Which cell viability does the source give for CN(NC(=O)CC(=O)NN(C)C(=S)c1ccccc1)C(=S)c1ccccc1 [Elesclomol] here?
The cell viability was 0.631.

How did the cell viability turn out when CO[C@@H]1[C@@H](OC(N)=O)[C@@H](O)[C@H](Oc2ccc3c(O)c(NC(=O)c4ccc(O)c(CC=C(C)C)c4)c(=O)oc3c2C)OC1(C)C [Novobiocin Sodium] was run?
Its cell viability is 1.1.
